Results on 59 compounds are retold here after PubChem BioAssay AID463173 (ICCB-Longwood Screening Facility, Harvard Medical School, 2010).

In all, about 52,000 compounds went through this assay and about 1,700 (3.3%) were called active. No stated cut-off is given here; in the data, active means survival mostly below about 52% (no sharp cut-off); inactive means mostly above about 56%. Some of the results follow.

The experiment deals with Wild type. Kind of experiment: S. aureus survival, RN4220 and DeltatarO strains – OD600, teichoic acid synthesis inhibitors, primary screen (AID 463173). The following applies: S. aureus RN4220 wild type/DeltatarO growth, OD600, 18 h, stronger effect = lower value, screened at 18.75 µg/mL (by protocol).
On to `Cc1nc2cccnc2n1-c1cccc(C(=O)NCc2ccc(OC(C)C)cc2)c1`, for which the survival was inactive: 68%.
With `COc1cc(NS(=O)(=O)c2ccc(NC(=O)C(C)Oc3ccc(Cl)cc3Cl)cc2)nc(OC)n1` (centres undefined) the figure was inactive: 64%; with `CCOc1ccc(NC(=O)c2c(NC(=O)c3ccco3)sc3c2CCC(C(C)(C)C)C3)cc1` (centres undefined), inactive: 80%.
For `O=C(NCc1ccccc1Cl)C1CCN(S(=O)(=O)c2ccc3c(c2)CCCN3C(=O)C2CCC2)CC1`, the survival was inactive: 80%.
For `CCC12CN3CC(C)(CN(C1)C3c1ccc(O)cc1O)C2=O` (centres undefined) the value was inactive: 85%; for `CC(C)c1ccccc1NC(=O)CC(C)(C)C`, inactive: 121%.
Take `Cc1cc(C)cc(Oc2coc3c(CN4CCN(C)CC4)c(O)ccc3c2=O)c1`: the survival is inactive: 72%.
In the case of `COc1ccc(Nc2c(-c3ccc(Cl)cc3)nc3cnccn23)cc1OC`, the survival is inactive: 75%.
For `CCOc1ccc(NC(=O)c2sc3nc4c(cc3c2N)CCCCCC4)cc1`, the survival is inactive: 81%.
Take `COc1cccc(C(=O)Nc2cc(-c3cn4cccnc4n3)ccc2C)c1OC`: the survival is inactive: 89%.
Consider `CC(C)NS(=O)(=O)c1cccs1`, for which the survival is inactive: 106%.
For the compound `O=C(c1cccs1)N(Cc1cccnc1)c1nc2ccc(F)cc2s1`, the survival was inactive: 85%.
In the case of `Cc1ccc(OCC(=O)Nc2ccccc2C(=O)OCc2cc(=O)n3nc(C4CC4)sc3n2)cc1`, the survival is inactive: 71%.
Regarding `Cc1nc2ccccn2c(=O)c1NC(=O)c1c(F)cccc1F`, the survival was inactive: 82%.
As for `CC1CCN(C(=O)c2c(NC(=O)c3ccccc3F)sc3c2CCC(C(C)(C)C)C3)CC1` (centres undefined), the survival was active: -2%.
In the case of `CCCN(CCC)CCCNC(=O)C1CCC(CNS(=O)(=O)c2cccc3nsnc23)CC1` (centres undefined), the survival is inactive: 91%.
As for `Cc1ccc(CN(Cc2ccco2)C(=O)COc2c(C)cc(C)cc2C)cc1`, the survival was inactive: 87%.
With `CCn1cc(S(=O)(=O)c2ccc(OC)cc2)c(=O)c2cc(F)c(N3CCC(C)CC3)cc21` the figure was inactive: 89%.
For `CC(C)C(c1nnnn1C(C)(C)C)N(Cc1cc2cc3c(cc2[nH]c1=O)OCCO3)C1CCCCC1` (centres undefined) the value was inactive: 101%; for `Oc1ccc(-c2nc3ccccn3c2Nc2ccc3c(c2)OCCO3)cc1`, inactive: 63%.
Consider `CCCCNS(=O)(=O)c1ccc2nc(-c3cccnc3)cc(C(=O)NCCC)c2c1`, for which the survival was inactive: 66%.
With `COCCCNC(=O)c1ccc2nc(Cc3ccc(OC)cc3)oc2c1` the figure was inactive: 68%.
With `COCCNC(=O)CSc1c2c(nc3cc(Cl)ccc13)CCCC2`, the survival was inactive: 71%.
For the compound `CCCc1nn2c(=O)cc(COC(=O)c3cccc(NC(=O)CCc4ccccc4)c3)nc2s1`, the survival is inactive: 129%.
For `NCCCCCc1nnc(SCc2ccc(F)cc2)o1` the value was inactive: 68%; for `CCOc1ccc(CNC(=O)C2CCN(S(=O)(=O)N3CCCCC3)CC2)cc1`, inactive: 71%.
With `CCCCSc1nnc2n(-c3cccc(C)c3)c(=O)c3c4c(sc3n12)CCCC4`, the survival is active: -1%.
As to `CC(=O)Nc1nonc1-c1nnc(SCc2ccc(F)cc2)n1C`, the survival is inactive: 83%.
As for `COc1ccc(C(C#N)N2N=C(C)CC2c2ccccc2)cc1OC` (centres undefined), the survival was inactive: 101%.
Regarding `Cc1cccc(OCc2nc(C#N)c(NCc3ccccc3Cl)o2)c1`, the survival was inactive: 23%.
As for `CCOC(=O)C1CCN(C(=O)CSc2n[nH]c(-c3ccccc3)n2)CC1`, the survival was inactive: 99%.
With `Cc1ccc2nc(COc3ccc(NC(=O)COc4ccccc4F)cc3)cc(=O)n2c1`, the survival is inactive: 128%.
For `COc1ccc(NC(=O)CSc2nc3ccccc3[nH]2)cc1` the value was inactive: 71%.
As for `COc1ccc(CC(=O)OC2CCCN(C)C2)cc1` (centres undefined), the survival is inactive: 100%.
Take `Fc1ccccc1Oc1ncnc2c1oc1ccccc12`: the survival is inactive: 32%.
As to `Clc1ccc(-c2csc(=Nc3ccccc3)n2Cc2ccc3c(c2)OCO3)cc1`, the survival is inactive: 103%.
For `CCCCC(CC)CNC(=O)CCCc1nnc2n(CCC)c(=O)c3sccc3n12` (centres undefined) the value was inactive: 68%; for `Cc1ccc(NC(=O)CSCn2nnc3c(=O)[nH]c(Cc4ccc(F)cc4)nc32)c(C)c1`, inactive: 103%.
In the case of `Cc1ccc(C)c(N2CCN(C(=O)Cn3c(=O)c4cccn4c4ccc(F)cc43)CC2)c1`, the survival was inactive: 82%.
For `COc1ccc(-c2cc3nc(C)c(CCC(=O)N4CCN(c5ccccc5)CC4)c(C)n3n2)c(OC)c1` the value was inactive: 72%.
For `Cc1c(CC(=O)NCc2ccccc2)c(=O)oc2c(C)c(O)ccc12` the value was inactive: 86%; for `Cc1cc(C)c2nc(NC(=O)c3ccc(S(=O)(=O)N4CCCC4)cc3)sc2c1`, inactive: 99%; for `CC(CC1C(C#N)=C(N)SC(N)=C1C#N)c1ccccc1` (centres undefined), inactive: 101%.
As to `COc1cc2c(=O)c(C(=O)c3ccc(C)c(C)c3)cn(Cc3ccccc3)c2cc1OC`, the survival was inactive: 86%.
Consider `Cc1cccc(N2CCN(C(=O)c3ccc4c(c3)N(Cc3ccccc3F)C(=O)c3ccccc3S4=O)CC2C)c1` (centres undefined), for which the survival was inactive: 93%.
Consider `CCOC(=O)/C(C#N)=C\c1ccc(Br)s1`, for which the survival is inactive: 104%.
For the compound `CCOc1cc(C2C(C(=O)OC)=C(C)NC3=C2C(=O)c2ccccc23)c(Br)cc1OC` (centres undefined), the survival is inactive: 75%.
As to `CCOCCCNC(=O)Cn1nc(C)n2c(cc3cc(C)ccc32)c1=O`, the survival was inactive: 82%.
Turning to `CCCCN(CCCNC(=O)CN1N=C(c2ccccc2)CCC1=O)c1ccccc1`, the survival was inactive: 72%.
As to `O=C(COc1ccccc1Cl)Nc1nc2c(s1)CCCC2`, the survival was inactive: 53%.
With `Cc1cccc(NC(=O)C2CCCN(S(=O)(=O)c3cccc4nonc34)C2)c1C` (centres undefined) the figure was inactive: 136%; with `CCc1cc(C(=O)O)c(NC(=O)c2ccccc2)s1`, inactive: 87%.
For `CCN1CCC(N(Cc2ccc3c(c2)OCO3)C(=O)Nc2cc(Cl)ccc2C(=O)OC)CC1`, the survival was inactive: 131%.
`CCCOC(=O)c1c(C)oc2c1cc(NS(=O)(=O)c1ccc(OCC)cc1)c1ccccc12`: the survival was inactive: 37%.
For `COc1cc2c(cc1NC(=O)COc1cc(C)ccc1C)oc1ccccc12`, the survival was inactive: 88%.
For `Cc1cc(C(=O)O)c2c(=O)n(C)c(=O)n(C)c2n1` the value was inactive: 81%; for `COc1ccc(-c2cn3c(n2)sc2cc(C(=O)NC4CCCc5ccccc54)ccc23)cc1` (centres undefined), inactive: 78%; for `Cc1cc2oc(=O)c(CC(=O)NCCc3ccccc3)c(C)c2c2occ(C(C)(C)C)c12`, inactive: 91%.
On to `CC(=Nc1ccc(C)cc1)c1ccc(O)cc1O`, for which the survival was inactive: 95%.
